# Reference: the supplement of paper PMC8728848
# Some of the results follow.
# B1: LCA (Lens culinaris), P02870 (protein)
# chain: MASLQTQMISFYLIFLSILLTTIFFFKVNSTETTSFSITKFSPDQKNLIFQGDGYTTKGKLTLTKAVKSTVGRALYSTPIHIWDRDTGNVANFVTSFTFVIDAPSSYNVADEFTFFIAPVDTKPQTGGGYLGVFNSKEYDKTSQTVAVEFDTFYNAAWDPSNKERHIGIDVNSIKSVNTKSWNLQNGERANVVIAFNAATNVLTVTLTYPNSLEEENVTSYTLNEVVPLKDVVPEWVRIGFSATTGAEFAAHEVHSWSFHSELGGTSSSKQAADA
# How the values were obtained:
# Experiment in all cases: glycan array binding signal (z-score within array); higher = stronger binding
# Conditions in all cases: glycan notation: IUPAC condensed, linker removed
# [1] = target: Gal3S(b1-3)[Fuc(a1-4)]GlcNAc
# Outline: (§1)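 Columns mapping to the same glycan were averaged after glycan names were converted to IUPAC-condensed notation. The data come from 3228 arrays in the Consortium for Functional Glycomics database, limited to those with an available protein sequence. Binding is reported as a within-array Z-score averaged across arrays of one protein sequence and across linkers.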
# Gal3S(b1-4)Glc = target: Gal3S(b1-4)Glc
# Outline: as §1
# Gal3S(b1-4)Glc6S = target: Gal3S(b1-4)Glc6S
# Outline: as §1
# Gal3S(b1-4)GlcNAc = target: Gal3S(b1-4)GlcNAc
# Outline: as §1
# Gal3S(b1-4)GlcNAc6S = target: Gal3S(b1-4)GlcNAc6S
# Outline: as §1
# [2] = target: Gal3S(b1-4)[Fuc(a1-3)]Glc6S
# Outline: as §1
# [3] = target: Gal3S(b1-4)[Fuc(a1-3)]GlcNAc
# Outline: as §1
# [4] = target: Gal3S(b1-4)[Fuc(a1-3)]GlcNAc6S
# Outline: as §1
# Gal3S4S(b1-4)GlcNAc = target: Gal3S4S(b1-4)GlcNAc
# Outline: as §1
# Gal3S6S(b1-4)GlcNAc = target: Gal3S6S(b1-4)GlcNAc
# Outline: as §1
# Gal3S6S(b1-4)GlcNAc6S = target: Gal3S6S(b1-4)GlcNAc6S
# Outline: as §1
# Gal4S(b1-4)GlcNAc = target: Gal4S(b1-4)GlcNAc
# Outline: as §1
# Gal4S6S(b1-4)GlcNAc = target: Gal4S6S(b1-4)GlcNAc
# Outline: as §1
# Gal6P(b1-4)GlcNAc = target: Gal6P(b1-4)GlcNAc
# Outline: as §1
# Gal6S(b1-3)GlcNAc = target: Gal6S(b1-3)GlcNAc
# Outline: as §1
# Gal6S(b1-3)GlcNAc6S = target: Gal6S(b1-3)GlcNAc6S
# Outline: as §1
# Gal6S(b1-4)Glc = target: Gal6S(b1-4)Glc
# Outline: as §1
# Gal6S(b1-4)Glc6S = target: Gal6S(b1-4)Glc6S
# Outline: as §1
# Gal6S(b1-4)GlcNAc = target: Gal6S(b1-4)GlcNAc
# Outline: as §1
# Gal6S(b1-4)GlcNAc6S = target: Gal6S(b1-4)GlcNAc6S
# Outline: as §1
# GalNAc(a1-3)Gal = target: GalNAc(a1-3)Gal
# Outline: as §1
# GalNAc(a1-3)GalNAc = target: GalNAc(a1-3)GalNAc
# Outline: as §1
# [5] = target: GalNAc(a1-3)GalNAc(a1-3)Gal(a1-4)Gal(b1-4)GlcNAc
# Outline: as §1
# [6] = target: GalNAc(a1-3)GalNAc(b1-3)Gal(a1-4)Gal(b1-4)Glc
# Outline: as §1
# [7] = target: GalNAc(a1-3)GalNAc(b1-3)Gal(a1-4)Gal(b1-4)GlcNAc
# Outline: as §1
# GalNAc(b1-3)Gal = target: GalNAc(b1-3)Gal
# Outline: as §1
# [8] = target: GalNAc(b1-3)Gal(a1-4)Gal(b1-4)GlcNAc
# Outline: as §1
# [9] = target: GalNAc(b1-3)Gal(a1-4)Gal(b1-4)GlcNAc(b1-3)Gal(b1-4)Glc
# Outline: as §1
# [10] = target: GalNAc(b1-3)Gal(a1-6)Gal(b1-4)Glc
# Outline: as §1
# GalNAc(b1-3)GalNAc = target: GalNAc(b1-3)GalNAc
# Outline: as §1
# GalNAc(b1-3)GlcNAc = target: GalNAc(b1-3)GlcNAc
# Outline: as §1
# GalNAc(b1-4)Gal(b1-4)Glc = target: GalNAc(b1-4)Gal(b1-4)Glc
# Outline: as §1
# GalNAc(b1-4)GlcNAc = target: GalNAc(b1-4)GlcNAc
# Outline: as §1
# [11] = target: GalNAc(b1-4)GlcNAc(b1-2)Man
# Outline: as §1
# [12] = target: GalNAc(b1-4)GlcNAc(b1-2)Man(a1-3)[GalNAc(b1-4)GlcNAc(b1-2)Man(a1-6)]Man(b1-4)GlcNAc(b1-4)GlcNAc
# Outline: as §1
# [13] = target: GalNAc(b1-4)GlcNAc(b1-3)GalNAc(b1-4)GlcNAc
# Outline: as §1
# GalNAc(b1-4)GlcNAc6S = target: GalNAc(b1-4)GlcNAc6S
# Outline: as §1
# GalNAc(b1-6)GalNAc = target: GalNAc(b1-6)GalNAc
# Outline: as §1
binder,measurement,setting,value
B1,glycan array binding signal (z-score),[1],-0.202
same,glycan array binding signal (z-score),Gal3S(b1-4)Glc,-0.176
same,glycan array binding signal (z-score),Gal3S(b1-4)Glc6S,-0.189
same,glycan array binding signal (z-score),Gal3S(b1-4)GlcNAc,-0.227
same,glycan array binding signal (z-score),Gal3S(b1-4)GlcNAc6S,-0.227
same,glycan array binding signal (z-score),[2],-0.17
same,glycan array binding signal (z-score),[3],-0.225
same,glycan array binding signal (z-score),[4],-0.221
same,glycan array binding signal (z-score),Gal3S4S(b1-4)GlcNAc,-0.226
same,glycan array binding signal (z-score),Gal3S6S(b1-4)GlcNAc,-0.211
same,glycan array binding signal (z-score),Gal3S6S(b1-4)GlcNAc6S,-0.226
same,glycan array binding signal (z-score),Gal4S(b1-4)GlcNAc,-0.215
same,glycan array binding signal (z-score),Gal4S6S(b1-4)GlcNAc,-0.191
same,glycan array binding signal (z-score),Gal6P(b1-4)GlcNAc,-0.268
same,glycan array binding signal (z-score),Gal6S(b1-3)GlcNAc,-0.226
same,glycan array binding signal (z-score),Gal6S(b1-3)GlcNAc6S,-0.231
same,glycan array binding signal (z-score),Gal6S(b1-4)Glc,-0.22
same,glycan array binding signal (z-score),Gal6S(b1-4)Glc6S,-0.215
same,glycan array binding signal (z-score),Gal6S(b1-4)GlcNAc,-0.22
same,glycan array binding signal (z-score),Gal6S(b1-4)GlcNAc6S,-0.194
same,glycan array binding signal (z-score),GalNAc(a1-3)Gal,-0.204
same,glycan array binding signal (z-score),GalNAc(a1-3)GalNAc,-0.228
same,glycan array binding signal (z-score),[5],-0.208
same,glycan array binding signal (z-score),[6],-0.229
same,glycan array binding signal (z-score),[7],-0.185
same,glycan array binding signal (z-score),GalNAc(b1-3)Gal,-0.208
same,glycan array binding signal (z-score),[8],-0.203
same,glycan array binding signal (z-score),[9],-0.231
same,glycan array binding signal (z-score),[10],-0.199
same,glycan array binding signal (z-score),GalNAc(b1-3)GalNAc,-0.19
same,glycan array binding signal (z-score),GalNAc(b1-3)GlcNAc,-0.23
same,glycan array binding signal (z-score),GalNAc(b1-4)Gal(b1-4)Glc,-0.208
same,glycan array binding signal (z-score),GalNAc(b1-4)GlcNAc,-0.18
same,glycan array binding signal (z-score),[11],-0.199
same,glycan array binding signal (z-score),[12],-0.144
same,glycan array binding signal (z-score),[13],-0.225
same,glycan array binding signal (z-score),GalNAc(b1-4)GlcNAc6S,-0.236
same,glycan array binding signal (z-score),GalNAc(b1-6)GalNAc,-0.197
